± gives the standard deviation. The full ranking holds about 5,500 sequences; the median of “pre-steady-state target cleavage rate” is about 0.1, and the highest 2% start at about 0.64. This is a selection; strong and weak results do not stand in their true shares.
The sequences below were run on MIWI (PIWIL1) piRISC loaded with piRNA #2 (30 nt) (assay: pre-steady-state target cleavage rate (min^-1); MIWI and MILI are mouse PIWI proteins and EfPiwi is from a freshwater sponge; tags in brackets are library labels; higher = faster piRNA-guided slicing of the target). Conditions: guide: piRNA #2 5'p-UUAGGUAACCCAGUAGAUCCAGAGGAAUUC; auxiliary factor: 500 nM mouse GTSF1.
In short: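 The pre-steady-state cleavage rate was derived from a burst-and-steady-state fit of Cleave-'n-Seq data. For these assays, 1 nM active affinity-purified piRISC loaded with a single synthetic guide was mixed with […] a transcribed, DNA-blocked target RNA library in HEPES–potassium acetate buffer at 33 °C, with or without 500 nM GTSF1 partner protein, for 0–8 or 0–960 min. Sequencing counts of uncleaved targets were normalised to depth and to weakly complementary targets, and k3 was capped at 0.0001 min^-1 after three trials were pooled.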

Row | Sequence | pre-steady-state target cleavage rate
1 | CUUAACCUCUGGUUCUACUGGGUUACCUAA | 0.479 ± 0.042
2 | CUUUUCCUCUGGAUCUACUCGGUUACCUAA | 0.104 ± 0.015
3 | GAUUUGCUCUGGAUCUACUGGGUUACCUAA | 0.071 ± 0.021
4 | GUUUUCCUCUGGAUCUACUGGGUUACCUAA | 0.0626 ± 0.026
5 | CUUAUCCUCAGGAUCUACUGCGUUACCUAA | 0.573 ± 0.075
6 | CAAUUCCUCAGGAUCUACAGGGUUACCUAA | 0.335 ± 0.026
7 | CUUUUCCUCUGGAUCUACUCGGAUACCUAA | 0.0163 ± 0.0085
8 | CUUAUCCUCUCGGAUCUACUGGGUUACCUAA | 0.484 ± 0.074
9 | CAAUUCCUCUGGUACUACUGGGUUACCUAA | 0.504 ± 0.07
10 | CUAUUCCUCUGGAUGUACUGCGUUACCUAA | 0.507 ± 0.071
11 | CUUAAGGAGAGGAUCUACUGGGUUACCCUAA | 0.00802 ± 0.0041
12 | CUUUUCCUCUCCUUCUACUGGGUUACCUAA | 0.494 ± 0.043
13 | CUUAUCCACUGGAUCUACUGGGAUACCUAA | 0.387 ± 0.044
14 | CAAAUCCUCUGGAUCUACUGGGUUACCUAA | 0.47 ± 0.069
15 | CUUAAGCUCUCGAUCUUCUGGGUUACCUAA | 0.461 ± 0.048
16 | CUUAAGGUCUGGUUCUACUGGGUUACCAAA | 0.0505 ± 0.013
17 | CUUAAGGAGUGGAUCUACUGGGUUAGCCUAA | 0.0298 ± 0.01
18 | CUUAACCUCUGGAUCUACUGGGAUUCCUAA | 0.0311 ± 0.011
19 | CUUAACCUCUGCAUCUUCUGGGUUACCUAA | 0.219 ± 0.019
20 | CUUUUCCUCUGGAUCUACUGGGGUUACCUAA | 0.0416 ± 0.011
21 | CAAUUCCUCUGGAUCUAUUGGGUUACCUAA | 0.381 ± 0.052
22 | CUUAAGGACUGGAUCUACUGGGUUAUCUAA | 0.1 ± 0.052
23 | CUAUUCCUCUGGACUACUGGGUUACCUAA | 0.263 ± 0.037
24 | GAAAUCCUCUGGAUCUACUGGGUUACGUAA | 0.532 ± 0.058

Row | Sequence | pre-steady-state target cleavage rate
25 | CUUAAGGAGAGGAUCUACUAGGUUACCUAA | 0.00547 ± 0.0027
26 | CUUUUCCUGUGGAUCUACUGGGUUACGUAA | 0.549 ± 0.05
27 | CUAAUCCUCUGGAUCUACUGGGUUACCAAA | 0.506 ± 0.056
28 | CUUAAGGUCUGGUUCUACUGCGUUACCUAA | 0.189 ± 0.048
29 | CUUUUCCUCAGGAUGUACUGGGUUACCUAA | 0.468 ± 0.059
30 | CAAUUCCUCUGCAUGUACUGGGUUACCUAA | 0.526 ± 0.038
31 | GAAUUCCUCUGGAUCUACUGGGUUACACUAA | 0.631 ± 0.068
32 | CAAUCCUCUGGAUCUACUGGGUUACCUAA | 0.449 ± 0.075
33 | CUAUUCCUCUGGAUCUACUGGGUUACUCUAA | 0.2 ± 0.031
34 | CAAAUCCUCAGGAUCUACUGGGUUACCUAA | 0.754 ± 0.059
35 | CUUAAGGAGACCUACUACUGCGAUACCUAA | 0.00266 ± 0.0023
36 | CUUUUCCUCUGGAUCUACUGGGUUAGGUAA | 0.0815 ± 0.019
37 | CUAUUCCUGUGGUUCUACUGGGUUACCUAA | 0.281 ± 0.022
38 | CUUAAGGUCUGGAUCUACUGGGUUACCUGA | 0.0684 ± 0.015
39 | CUAUUCCUCUGGAUCUACUGGGUUAGCUAA | 0.349 ± 0.061
40 | CUAUUCCUCUGGAUCUACUGGGUUACACUAA | 0.636 ± 0.073
41 | GAAUUCCUCUGGAUGUACUGGGUUAGCUAA | 0.43 ± 0.062
42 | CUUUUCCUCUGGAUCAACUGGGUUACGUAA | 0.496 ± 0.045
43 | CUUAAGCUCAGGAUCUUCUGGGUUACCUAA | 0.141 ± 0.023
44 | CUUAAGGUCAGGAUCUACUGGGUAACCUAA | 0.00869 ± 0.0069
45 | CUUAAGCUCUGGAUCUACUGGGUUACCAUAA | 0.163 ± 0.023
46 | CUUAAGGUCUGGAUCUACUGGGGUUACCUAA | 0.00828 ± 0.003
47 | CUUAUCCUCUGCAUCUACUGGGUUACCAAA | 0.223 ± 0.04
48 | CUUAAGGUGUGGAUCUACUGGGUUAGCUAA | 0.0221 ± 0.011

Row | Sequence | pre-steady-state target cleavage rate
49 | GAAUUCCACUGGAUCUACUGGGUUAGCUAA | 0.668 ± 0.12
50 | CUUAAGGUGUGCAUCUACUGGGUUACCUAA | 0.00997 ± 0.0038
51 | CUUAAGGACUGGAUCUUCUGGGUUACGUAA | 0.173 ± 0.066
52 | CUUUUCCACUGGAUCUACUCGGUUACCUAA | 0.083 ± 0.013
53 | CUUAAGGACUGGUUCUACUGGGUUACCUAA | 0.0936 ± 0.042
54 | CAAUUCCUCUGGAUCUACUGGGUUUCCAAA | 0.179 ± 0.051
55 | CUUAAGGAGAGGAUCUACUGGGUUACCAUA | 0.00556 ± 0.0043
56 | CUUAACCUCUGGAUCUUCUGGGUUAGCUAA | 0.0483 ± 0.011
57 | GAAUUCCUCUGGAUCUAUUGGGUUACCUAA | 0.177 ± 0.03
58 | CUUAAGGAGUGCAUCUACUGGGUUACCUAA | 0.00703 ± 0.0036
59 | CAAUUCGUCUGGAUCUACAGGGUUACCUAA | 0.169 ± 0.016
60 | CUUUUCCUCUGGAUCUACUGGGUUACUUAA | 0.583 ± 0.057
61 | CUUAUCCUCAGGAUCUACUGGGUUACCUUA | 0.429 ± 0.069
62 | CUUAUCCUCUGGUCUACUGGGUUACCUAA | 0.149 ± 0.04
63 | GAAUUCCUCUGGUAGUACUGGGUUACCUAA | 0.288 ± 0.044
64 | CUUAACCUCUGGAUGUACUGCGUUACCUAA | 0.559 ± 0.056
65 | GAAUUCCUCUGGAACUACUGGGAUACCUAA | 0.18 ± 0.032
66 | GAAUUCCUCUGGAUCUACUGGGUUAACUAA | 0.674 ± 0.059
67 | CUUAAGGUCUGGAUCUACUGGGUUCCCUAA | 0.107 ± 0.02
68 | CUUAACCUCUGGAACUACUGGGUUACCUUA | 0.205 ± 0.024
69 | CUAUUCCUCUGGAUCUACUGGGUUAGCUUA | 0.169 ± 0.037
70 | CUUAUGCUCUGGAUCUACUCGGUUACCUAA | 0.0442 ± 0.0085
71 | CAAUUCCUGUCGAUCUACUGGGUUACCUAA | 0.564 ± 0.053
72 | CAAUUCCUCACGAUCUACUGGGUUACCUAA | 0.784 ± 0.05

— the supplement of paper PMC10338343
